Test results published in the supplement of paper PMC12217912.
The list shows a part of the results. The full chains were built here from the parent and the listed change. Values near 0.05 are background.

B1: TEV protease; numbered along this chain (parent)
chain: MGESLFKGPRDYNPISSSICHLTNESDGHTTSLYGIGFGPFIITNKHLFRRNNGTLVVQSLHGVFKVKDTTTLQQHLVDGRDMIIIRMPKDFPPFPQKLKFREPQREERICLVTTNFQTKSMSSMVSDTSCTFPSGDGIFWKHWIQTKDGQCGSPLVSTRDGFIVGIHSASNFTNTNNYFTSVPKNFMELLTNQEAQQWVSGWRLNADSVLWGGHKVFMVKPEEPFQPVKEATQL

Variants of: B1
Assay: raw area under fraction-flipped curve 0-4 h after induction (AUC4h, not background-subtracted), DNA-recorder readout of cleavage of the substrate (dimensionless); higher = more cleavage of the substrate by the protease variant
Conditions: temperature: 34 °C; time window: 0-4 h after rhamnose induction
Experimental: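 In vivo DNA recorder in E. coli TOP10(DE3) ΔrhaA at 34 °C. Each TEVp single-site mutant (parent TEVp 0) is paired with a single-site variant of the 7-mer TEVs (canonical ENLYFQ|S). The substrate sits between flexible linkers in a Bxb1-sfGFP-TEVs-SsrA fusion, so cleavage stabilises Bxb1 and speeds flipping of a recombination array, read by NGS. The value is the raw area under the fraction-flipped curve over 0-4 h after rhamnose induction (AUC4h), with ≥20 reads per time point. It is not background-subtracted; inactive controls average about 0.047.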
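Also: Bxb1 expression induced with 0.2% (w/v) L-rhamnose at OD600 near 0.5, cultures sampled hourly, flipped fraction per protease–substrate barcode pair counted by paired-end Illumina sequencing.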

Variant | area with substrate ENAYFQS | area with substrate ENCYFQS | area with substrate ENDYFQS | area with substrate ENEYFQS | area with substrate ENFYFQS | area with substrate ENGYFQS | area with substrate ENHYFQS | area with substrate ENIYFQS | area with substrate ENKYFQS | area with substrate ENMYFQS | area with substrate ENNYFQS | area with substrate ENQYFQS | area with substrate ENRYFQS | area with substrate ENSYFQS | area with substrate ENTYFQS | area with substrate ENVYFQS | area with substrate ENWYFQS | area with substrate ENYYFQS | area with substrate ENPYFQS
Q75R | 0.0599 | 0.0565 | 0.0516 | 0.0232 | 0.055 | 0.0686 | 0.0588 | 0.0455 | 0.046 | 0.051 | 0.0536 | 0.057 | 0.0511 | 0.0562 | 0.0824 | 0.0717 | 0.0183 | 0.0645 | 
L77H | 0.0621 | 0.0605 | 0.0782 | 0.0639 | 0.0582 | 0.0578 | 0.0586 | 0.0672 | 0.0511 | 0.0459 | 0.0563 | 0.0645 | 0.0651 | 0.0592 | 0.0545 |  |  |  | 0.0619
L77I | 0.0675 | 0.0648 | 0.0584 | 0.0691 |  | 0.0616 | 0.0738 |  |  | 0.0691 | 0.062 | 0.0472 | 0.0495 | 0.0484 | 0.0492 | 0.0621 | 0.0533 | 0.0651 | 
V78P | 0.0505 | 0.0463 | 0.0614 | 0.0524 | 0.0591 | 0.0769 | 0.0602 |  | 0.0569 | 0.0609 | 0.0594 | 0.063 | 0.0505 | 0.0576 | 0.0654 | 0.0652 | 0.054 | 0.0716 | 
V78W | 0.0606 | 0.0653 | 0.0651 | 0.062 | 0.0478 | 0.0573 | 0.0484 |  | 0.0602 | 0.0547 | 0.0449 | 0.0571 | 0.0611 | 0.0799 | 0.0528 | 0.0501 |  | 0.0625 | 0.0619
V78Y | 0.0565 |  |  | 0.0688 | 0.0557 |  |  | 0.0639 | 0.0537 | 0.0565 | 0.056 | 0.0561 |  | 0.0628 | 0.0552 |  |  | 0.0351 | 
R81C | 0.0491 | 0.0661 | 0.0611 | 0.0722 | 0.0558 | 0.0567 | 0.0467 | 0.0797 | 0.0515 | 0.0709 |  | 0.0572 | 0.0559 | 0.0629 | 0.0685 | 0.053 |  | 0.0442 | 0.0676
D82K | 0.0573 | 0.0474 | 0.0531 | 0.0464 | 0.0423 | 0.0586 | 0.0609 | 0.0663 |  | 0.0569 | 0.0627 |  | 0.0599 | 0.0467 | 0.0481 |  |  | 0.067 | 
M83D | 0.0628 | 0.0506 | 0.0532 | 0.058 | 0.0696 | 0.0576 | 0.0483 |  | 0.0539 |  | 0.05 | 0.0784 | 0.046 | 0.0463 | 0.0327 | 0.055 |  |  | 0.0583
I84E | 0.0499 | 0.0552 | 0.06 | 0.061 | 0.0463 | 0.0513 | 0.0475 | 0.0645 | 0.054 | 0.0083 | 0.0625 | 0.0486 | 0.0563 | 0.0482 | 0.0428 | 0.0446 | 0.0498 | 0.0617 | 0.0531
I85R | 0.0826 |  | 0.0527 |  | 0.0425 | 0.0568 | 0.0547 |  | 0.043 | 0.0754 | 0.0529 | 0.0537 |  | 0.0503 |  |  |  | 0.06 | 0.0575
